± gives the standard deviation of the averaged measurements. In all, about 33,000 sequences were measured (“E-score (dimensionless, -0.5 to 0.5)”: median about -0.049, highest 2% from about 0.37 on). The list shows a part of the results.
The sequences below were run on T1, PmTbr T-box DNA-binding domain (GST fusion) (assay: PBM E-score of 8-mer (E-score (dimensionless, -0.5 to 0.5)); Tbr is Tbrain of the sea star Patiria miniata (Pm) or the sea urchin Strongylocentrotus purpuratus (Sp); higher = stronger binding preference; most listed sequences are background and not binding sites). Conditions: the construct has about 5 more residues each side.
T1 sequence: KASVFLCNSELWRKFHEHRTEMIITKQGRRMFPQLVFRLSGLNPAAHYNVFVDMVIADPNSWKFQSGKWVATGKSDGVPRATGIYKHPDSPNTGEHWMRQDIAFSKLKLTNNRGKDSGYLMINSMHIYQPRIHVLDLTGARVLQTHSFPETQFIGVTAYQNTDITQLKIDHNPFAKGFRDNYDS
How it was run: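 Primer extension turned Universal Agilent oligonucleotide arrays double-stranded. They were incubated with 200 nM protein in PBS (pH 7.5); the protein was a GST-fused Tbr T-box DNA-binding domain expressed in BL21 E. coli at 20 °C and purified on glutathione. Every ungapped 8-mer was scored from the scanned, quantified probe intensities, and the Universal PBM Analysis Suite gave each an enrichment E-score averaged over duplicate arrays.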

Sequence | PBM E-score of 8-mer
AACCACAC | 0.289 ± 0.0025
GTACCTTA | -0.0986 ± 0.099
CAATGCAA | -0.155 ± 0.044
GCCTAACA | 0.154 ± 0.024
CTGACAGA | 0.0579 ± 0.029
CGGAGACC | -0.203 ± 0.022
CTATTAAG | -0.116 ± 0.03
TCACGGAA | 0.0813 ± 0.0081
AGCCGCCA | 0.0884 ± 0.0055
CGGGCTCA | -0.0674 ± 0.017
AAGCATCC | -0.129 ± 0.037
GTGTTACA | 0.386 ± 0.013
GACGACAA | 0.131 ± 0.014
AAACGCTA | -0.041 ± 0.035
AGGCGATA | 0.262 ± 0.0083
GCCGTAGC | -0.268 ± 0.08
CGTCAGAG | -0.00987 ± 0.14
ATGTCCCG | -0.244 ± 0.035
GGGCCTAC | -0.254 ± 0.029
CACTGGCG | 0.158 ± 0.072
CCTACAAA | -0.14 ± 0.03
GCACCACC | 0.192 ± 0.11

Sequence | PBM E-score of 8-mer
ACCCGAGA | -0.101 ± 0.081
AGACCCGG | -0.263 ± 0.034
CGGTGAGA | 0.236 ± 0.0071
ACTGTGCT | 0.118 ± 0.036
CAATACAC | 0.134 ± 0.018
AAGCCGAA | -0.207 ± 0.039
ACTGACTA | -0.169 ± 0.016
GTTTAATA | -0.127 ± 0.015
ACCTCTAT | 0.239 ± 0.081
CCGTACCC | -0.342 ± 0.076
CGCCGCCA | 0.0118 ± 0.12
AAAACCTA | -0.209 ± 0.086
AAGTAAAA | -0.207 ± 0.0068
AATCCAAG | -0.178 ± 0.0028
TCCGGACA | -0.007 ± 0.055
TACCTATA | -0.137 ± 0.041
GCTCGTAA | -0.0733 ± 0.036
GCCACTAA | 0.153 ± 0.019
ACTCGGCA | 0.0801 ± 0.035
GCACACAA | -0.08 ± 0.061
AAGTGTCA | 0.4726 ± 0.0035
CAAATGTG | 0.296 ± 0.022

Sequence | PBM E-score of 8-mer
AGGGAGAT | -0.0741 ± 0.034
AAGTGAAC | -0.0437 ± 0.14
GTGCTCCA | -0.0568 ± 0.025
ACAAAAGC | 0.00787 ± 0.035
ATGATACC | -0.113 ± 0.018
AACGCTGC | 0.128 ± 0.017
GTAGGTGA | 0.397 ± 0.02
CGTAAGCC | -0.222 ± 0.063
TCAGATGA | -0.136 ± 0.035
AGTAATAG | -0.00931 ± 0.014
AGGGGCCA | -0.1394 ± 0.00072
CGATGGCC | -0.102 ± 0.053
CTCGACTA | -0.163 ± 0.029
CAGGGCAC | -0.0605 ± 0.021
GCAGTACC | 0.0599 ± 0.05
ATCTGTAG | -0.14 ± 0.043
TACACGGA | 0.088 ± 0.037
GCCACAGC | -0.03973 ± 5.7e-05
AAGCGACG | 0.137 ± 0.019
AACTCAAA | -0.0783 ± 0.034
TATCTAAA | -0.232 ± 0.1
AAAAAGCC | -0.211 ± 0.053

Sequence | PBM E-score of 8-mer
AGATTGTA | -0.0747 ± 0.059
ATGGGGAG | -0.19 ± 0.02
GGTTTCGA | -0.114 ± 0.029
CCGGTAAG | -0.135 ± 0.01
GCGCTCTA | 0.102 ± 0.063
TAACGCGA | 0.318 ± 0.039
GATCGCGA | 0.303 ± 0.057
TGACGAAA | 0.186 ± 0.08
CTGTACAA | -0.103 ± 0.0019
TACGGAGA | -0.103 ± 0.036
TAGAAGAA | -0.381 ± 0.0066
CGCCATAC | 0.031 ± 0.022
AGTTTTAT | -0.189 ± 0.078
CCGAAGTA | -0.302 ± 0.021
CAAATAAC | -0.0624 ± 0.062
AATCAACT | -0.0611 ± 0.019
CAATGCCA | -0.0317 ± 0.036
CGTTCTTA | -0.196 ± 0.038
ACATCGCC | -0.00823 ± 0.095
AACCATTC | -0.0787 ± 0.013
